This passage reports binding results from publication PMC8039031.

Chains of the proteins cited; added tags and fusions are not shown. Lines headed by an entry give the natural chain unless they say otherwise; changes in a name come on top.
UniProt P40763: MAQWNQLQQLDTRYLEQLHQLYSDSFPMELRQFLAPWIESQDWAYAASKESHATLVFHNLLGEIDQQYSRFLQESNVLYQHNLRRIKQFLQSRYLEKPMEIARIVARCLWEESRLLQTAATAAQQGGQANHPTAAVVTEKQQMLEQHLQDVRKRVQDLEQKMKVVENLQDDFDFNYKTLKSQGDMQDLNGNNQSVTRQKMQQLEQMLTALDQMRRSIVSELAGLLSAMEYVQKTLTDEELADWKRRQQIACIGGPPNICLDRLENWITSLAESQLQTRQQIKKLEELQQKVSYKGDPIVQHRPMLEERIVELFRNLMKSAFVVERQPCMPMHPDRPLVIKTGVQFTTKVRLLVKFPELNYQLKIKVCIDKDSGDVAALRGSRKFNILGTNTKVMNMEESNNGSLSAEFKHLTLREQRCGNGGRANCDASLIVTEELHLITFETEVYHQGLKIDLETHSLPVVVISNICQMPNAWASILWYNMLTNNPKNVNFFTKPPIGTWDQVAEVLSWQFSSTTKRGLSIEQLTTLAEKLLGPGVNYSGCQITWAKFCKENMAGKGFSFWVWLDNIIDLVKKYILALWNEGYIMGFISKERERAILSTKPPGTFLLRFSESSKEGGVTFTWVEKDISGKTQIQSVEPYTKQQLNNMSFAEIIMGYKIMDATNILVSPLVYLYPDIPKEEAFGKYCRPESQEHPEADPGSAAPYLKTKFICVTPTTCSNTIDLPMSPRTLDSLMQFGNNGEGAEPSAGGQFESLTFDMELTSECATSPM
UniProt Q92830: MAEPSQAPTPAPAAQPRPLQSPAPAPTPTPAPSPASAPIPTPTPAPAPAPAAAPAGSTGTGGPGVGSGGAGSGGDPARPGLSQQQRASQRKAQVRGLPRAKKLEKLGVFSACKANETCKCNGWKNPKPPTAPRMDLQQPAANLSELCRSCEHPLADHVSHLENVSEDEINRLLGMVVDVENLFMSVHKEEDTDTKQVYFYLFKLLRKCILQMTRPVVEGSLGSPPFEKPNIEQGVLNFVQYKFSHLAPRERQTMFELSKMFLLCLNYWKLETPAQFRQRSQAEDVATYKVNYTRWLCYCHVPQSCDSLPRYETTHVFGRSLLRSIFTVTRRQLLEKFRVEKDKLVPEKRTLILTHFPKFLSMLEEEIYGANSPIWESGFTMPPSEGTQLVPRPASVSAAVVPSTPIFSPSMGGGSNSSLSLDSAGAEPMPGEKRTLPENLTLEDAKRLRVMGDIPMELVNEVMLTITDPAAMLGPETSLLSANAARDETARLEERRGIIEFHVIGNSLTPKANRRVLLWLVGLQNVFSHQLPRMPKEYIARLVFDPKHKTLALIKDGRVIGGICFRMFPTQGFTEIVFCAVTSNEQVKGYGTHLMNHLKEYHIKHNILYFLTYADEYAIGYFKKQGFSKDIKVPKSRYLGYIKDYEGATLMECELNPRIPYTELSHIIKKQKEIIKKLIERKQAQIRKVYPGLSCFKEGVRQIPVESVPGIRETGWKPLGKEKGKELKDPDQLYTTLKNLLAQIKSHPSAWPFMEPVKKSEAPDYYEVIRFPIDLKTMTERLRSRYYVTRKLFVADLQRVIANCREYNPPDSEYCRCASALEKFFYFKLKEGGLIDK
UniProt Q09472: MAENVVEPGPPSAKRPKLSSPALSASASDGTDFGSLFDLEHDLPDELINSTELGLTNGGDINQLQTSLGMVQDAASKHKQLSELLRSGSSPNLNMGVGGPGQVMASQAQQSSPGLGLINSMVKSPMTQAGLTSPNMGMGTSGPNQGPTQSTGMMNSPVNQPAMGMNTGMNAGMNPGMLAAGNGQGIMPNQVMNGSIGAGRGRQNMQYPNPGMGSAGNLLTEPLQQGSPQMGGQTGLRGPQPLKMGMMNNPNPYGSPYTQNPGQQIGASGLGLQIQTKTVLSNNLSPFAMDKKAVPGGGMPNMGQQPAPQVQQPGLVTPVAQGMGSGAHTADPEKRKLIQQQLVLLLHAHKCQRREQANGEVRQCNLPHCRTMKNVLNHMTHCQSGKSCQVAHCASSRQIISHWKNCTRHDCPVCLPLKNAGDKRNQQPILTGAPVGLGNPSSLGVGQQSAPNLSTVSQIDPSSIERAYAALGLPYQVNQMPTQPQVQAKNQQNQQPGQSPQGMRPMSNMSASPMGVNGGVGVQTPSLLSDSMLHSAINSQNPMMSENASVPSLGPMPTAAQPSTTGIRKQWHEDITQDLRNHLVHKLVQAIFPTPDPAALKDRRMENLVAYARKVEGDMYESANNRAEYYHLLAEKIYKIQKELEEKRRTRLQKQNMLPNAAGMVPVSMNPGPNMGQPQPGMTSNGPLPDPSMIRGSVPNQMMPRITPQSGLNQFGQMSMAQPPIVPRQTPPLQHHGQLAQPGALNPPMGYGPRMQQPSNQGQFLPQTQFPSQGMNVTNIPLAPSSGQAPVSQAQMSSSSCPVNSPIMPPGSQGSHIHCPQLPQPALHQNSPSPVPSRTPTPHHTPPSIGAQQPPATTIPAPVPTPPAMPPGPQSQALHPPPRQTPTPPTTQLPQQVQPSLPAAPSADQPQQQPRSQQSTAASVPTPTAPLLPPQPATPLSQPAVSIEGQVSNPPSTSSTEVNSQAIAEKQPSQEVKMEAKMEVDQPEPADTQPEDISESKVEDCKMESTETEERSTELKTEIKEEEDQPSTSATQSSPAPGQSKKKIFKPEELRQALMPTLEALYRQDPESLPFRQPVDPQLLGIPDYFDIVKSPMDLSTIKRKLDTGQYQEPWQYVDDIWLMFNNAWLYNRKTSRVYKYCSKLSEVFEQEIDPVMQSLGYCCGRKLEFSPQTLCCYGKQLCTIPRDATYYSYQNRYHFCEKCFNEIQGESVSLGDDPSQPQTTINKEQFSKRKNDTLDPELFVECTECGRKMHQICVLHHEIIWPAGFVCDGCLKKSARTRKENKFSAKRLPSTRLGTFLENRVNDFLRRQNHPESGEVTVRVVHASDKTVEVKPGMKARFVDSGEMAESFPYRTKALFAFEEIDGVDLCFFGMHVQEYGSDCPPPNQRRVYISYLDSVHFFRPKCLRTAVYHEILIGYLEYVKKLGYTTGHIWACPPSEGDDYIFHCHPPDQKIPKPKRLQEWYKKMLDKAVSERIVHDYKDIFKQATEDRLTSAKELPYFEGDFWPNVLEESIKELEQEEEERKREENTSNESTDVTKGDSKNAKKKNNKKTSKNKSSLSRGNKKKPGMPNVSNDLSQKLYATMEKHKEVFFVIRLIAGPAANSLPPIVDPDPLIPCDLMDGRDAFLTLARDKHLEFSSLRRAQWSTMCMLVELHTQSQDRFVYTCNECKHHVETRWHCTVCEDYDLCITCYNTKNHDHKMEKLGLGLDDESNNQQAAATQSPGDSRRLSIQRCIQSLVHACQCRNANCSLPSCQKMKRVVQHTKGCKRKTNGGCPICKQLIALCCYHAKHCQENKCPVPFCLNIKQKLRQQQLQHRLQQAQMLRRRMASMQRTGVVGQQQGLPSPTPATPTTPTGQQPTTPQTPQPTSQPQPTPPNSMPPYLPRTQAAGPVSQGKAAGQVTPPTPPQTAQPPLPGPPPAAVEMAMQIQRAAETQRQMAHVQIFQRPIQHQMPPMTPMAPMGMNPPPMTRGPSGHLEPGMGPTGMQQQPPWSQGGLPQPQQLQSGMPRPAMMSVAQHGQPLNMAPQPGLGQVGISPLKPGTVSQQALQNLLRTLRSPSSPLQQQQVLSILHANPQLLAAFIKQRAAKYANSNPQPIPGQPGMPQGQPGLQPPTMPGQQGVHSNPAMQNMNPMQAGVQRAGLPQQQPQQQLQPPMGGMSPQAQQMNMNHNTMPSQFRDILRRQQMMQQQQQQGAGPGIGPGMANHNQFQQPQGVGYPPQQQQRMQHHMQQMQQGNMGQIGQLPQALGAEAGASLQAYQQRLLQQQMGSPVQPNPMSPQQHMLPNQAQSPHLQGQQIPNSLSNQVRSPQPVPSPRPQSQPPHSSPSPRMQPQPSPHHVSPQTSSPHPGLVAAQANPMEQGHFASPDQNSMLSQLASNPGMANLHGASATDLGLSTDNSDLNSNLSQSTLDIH

Results are given in words; binding and its absence hold for the method and conditions named. For part of these data: In cells and extracts the contact can be indirect. Some entries that bind do so weakly or less than the wild type. For part of these data: Sequences can lack the tags named with a protein.

The target of experiment [1] is T1, GST-CREPT (UniProt Q9NQG5).
T1 sequence: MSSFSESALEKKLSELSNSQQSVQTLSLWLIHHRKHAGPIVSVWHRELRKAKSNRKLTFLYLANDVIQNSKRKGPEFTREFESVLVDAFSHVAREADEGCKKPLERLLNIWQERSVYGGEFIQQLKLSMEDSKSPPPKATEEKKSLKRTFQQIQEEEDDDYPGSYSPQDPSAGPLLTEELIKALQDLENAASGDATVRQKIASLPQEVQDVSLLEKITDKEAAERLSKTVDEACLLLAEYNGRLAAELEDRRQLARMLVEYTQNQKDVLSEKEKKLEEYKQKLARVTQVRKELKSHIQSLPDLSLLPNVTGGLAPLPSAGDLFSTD
As to the kind of experiment: pull-down; GST-CREPT purified from E. coli with Flag-STAT3 from untreated HEK293T cells (Fig. 4d); both purified.

The target of experiment [2] is T2, Myc-CREPT (cell cycle-related and elevated-expression protein in tumours, RPRD1B) (UniProt Q9NQG5).
T2 sequence: T1 sequence
As to the kind of experiment: co-IP; exogenously expressed proteins, cells treated with LIF; HEK293T (Fig. 4a); cells of Fig. 4c not stated.

Experiment [3] has as its target T2, Myc-CREPT (cell cycle-related and elevated-expression protein in tumours, RPRD1B). In words: co-IP; cytoplasmic and nuclear fractions, with or without LIF (Fig. 4b).
The target is the same in experiment [4]. As to the kind of experiment: co-IP; exogenously expressed proteins, cells without LIF; HEK293T (Fig. 4a); cells of Fig. 4c not stated.
The target in experiment [5] is T1, GST-CREPT. As to the kind of experiment: pull-down; GST-CREPT purified from E. coli with Flag-STAT3 purified from HEK293T cells under LIF stimulation (Fig. 4d); both purified.
The target in experiment [6] is Flag-STAT3 expressed in MCF7 cells (UniProt P40763). As to the kind of experiment: co-IP; Flag-STAT3 in MCF7 cells, co-expressed with Myc-CREPT or with siRNAs against endogenous CREPT, under LIF stimulation (Fig. 5i-k).
Experiment [7] concerns the target T3, endogenous CREPT (human (endogenous in MCF7 and SW480)) (UniProt Q9NQG5).
T3 sequence: T1 sequence
As to the kind of experiment: co-IP; MCF7 cell lysates under LIF stimulation precipitated by an anti-CREPT antibody (Fig. 5h).

For experiment [8], the target named is T3, endogenous CREPT (human (endogenous in MCF7 and SW480)). As to the kind of experiment: co-IP; endogenous proteins; nuclear extracts of MCF7 or SW480 cells immunoprecipitated with an anti-CREPT antibody, with or without LIF.

As for “Flag-STAT3 (signal transducer and activator of transcription 3) (from UniProt P40763 1-770)”, the binding entry in experiment [1] is “no binding (condition: Flag-STAT3 from cells without LIF)”; in experiment [2], “binds”; in experiment [3] it was “binds”; in experiment [4], “no binding (condition: cells without LIF)”; in experiment [5] it was “binds”.

On to GCN5 (from UniProt Q92830 1-837), for which the binding result in experiment [6] is “binds”.

With STAT3Y705F (from UniProt P40763 1-770), the binding result in experiment [2] was “no binding”.

“endogenous STAT3 (from UniProt P40763 1-770)”: the binding result in experiment [7] and in experiment [8] was “binds” each time.

As to “endogenous p300 (from UniProt Q09472 1-2414)”, the binding entry in experiment [7], in experiment [6] and in experiment [8] was “binds” each time.
